According to PubChem BioAssay (NCI):
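Following 48 hours of exposure in 96-well plates, responses at five concentrations were used to interpolate endpoints linearly. Here, GI50 denotes the concentration required for 50% inhibition of growth. TGI marks complete inhibition of growth.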

test system: NCI-H322M lung; experiment: NCI anticancer screen, dose series, 48 h

Compound | GI50 | TGI
COc1cc(OC)c(S(=O)(=O)N(CCCl)CCCl)cc1C(=O)/C=C/c1cc(OC)c(OC)c(OC)c1 | 3 µM | 13.8 µM
CN(CCO)c1oc(-c2ccccc2)nc1[P+](c1ccccc1)(c1ccccc1)c1ccccc1 | 3.86 µM | 16.3 µM
Cc1noc2c(Cc3ccccc3)nn(CC(=O)N/N=C/c3ccc(F)cc3)c(=O)c12 | > 100 µM | > 100 µM
FC(F)(F)c1cc2c(Cl)ncnc2n1CCC1CCOCC1 | 3.14 µM | 12.5 µM
O=C(Nc1cccc(-c2cn(-c3ccc4oc(=O)ccc4c3)nn2)c1)Nc1cc(C(F)(F)F)cc(C(F)(F)F)c1 | > 100 µM | > 100 µM
